Test results taken from PMC8876511, “Two out of Three Musketeers Fight against Cancer: Synthesis, Physicochemical, and Biological Properties of Phosphino Cu^I, Ru^II, Ir^III Complexes” (Pharmaceuticals, 2022).

Each compound was assayed on pBR322 plasmid. Conditions: pBR322, 50 μM complex + 50 μM H2O2.
Experimental: The ability of studied compounds to induce single- and/or double-strand damage to DNA was tested using gel electrophoresis of pBR322 plasmid, which naturally occurs as a covalently closed superhelical form (form I). The process of DNA degradation can lead to the formation of both the relaxed/nicked form (form II) and linear form (form III). The degree of DNA degradation was determined in a wide range of concentrations (from 2 to 1000 µM). […] Due to the lack of DNA degradation, tested compounds can probably cause fewer side effects than cisplatin. This probably makes them a safe choice as potential cancer therapeutics.
Hydrogen peroxide (H2O2) is a source of hydroxyl radicals and a strong DNA oxidant in the presence of transition metal ions and their complexes. Gel electrophoresis can determine the ability of reactive oxygen species (ROS) to cause damage to plasmid DNA. In order to identify a given type of ROS formed by the complexes in the presence of H2O2, gel electrophoresis with the specific quenchers such as: DMSO (effective ^●OH scavenger) and NaN3 (effective ^1O2 scavenger) was performed. […] Partial protection against the formation of the nicked form of DNA was noticed after adding DMSO or NaN3 to the studied complexes in the presence of H2O2 (Supplementary Material, Figure S27.). This means that the tested ruthenium and iridium complexes are able to form moderate amounts of the hydroxyl radical and singlet oxygen.
The ability of 1, 1a, 1b, 2, 2a, 2b, and starting ligands to induce plasmid DNA damage was tested with the pBR322 plasmid (C = 0.5 mg/mL). All compounds were dissolved in DMF with/without hydrogen peroxide (H2O2, C = 50 μM), dimethyl sulfoxide (DMSO, C = 1.4 mM), or sodium azide (NaN3, C = 40 mM). After incubation for 1 h at 37 °C, reaction mixtures (16 μL) were mixed with 3 μL of loading buffer (bromophenol blue in 30% glycerol) and loaded on 1% agarose gels, containing EB, in TBE buffer (90 Mm Tris–borate, 20 mM EDTA, pH = 8.0). Gel electrophoresis was performed at a constant voltage of 120 V for 120 min. […]

Compound | DNA strand breaks in the presence of H2O2
CCN(CC)C[P+](c1ccccc1)(c1ccccc1)[Ir-3]([Cl])([Cl])[C]1(C)C(C)=C(C)C(C)=C1C [1a, Ir(η^5-Cp*)Cl2Ph2PCH2N(CH2CH3)2] | capable of causing DNA single-strand breaks and without causing double-strand breaks
Ru(η^6-p-cymene)Cl2Ph2PCH2N(CH2CH2CH2CH3)2 [2b] | capable of causing DNA single-strand breaks and without causing double-strand breaks
Ru(η^6-p-cymene)Cl2Ph2PCH2N(CH2CH3)2 [1b] | capable of causing DNA single-strand breaks and without causing double-strand breaks
